Laboratory results: PubChem BioAssay AID2546 (National Center for Advancing Translational Sciences (NCATS), 2010)
Hit rate of the full screen: of about 310,000 compounds, about 11,000 (3.5%) were called active. The inconclusive results got no clear call from the source; some entries with a clear call stand among them for comparison. The call rests on the fitted dose curve; in most records, active means well fitted inhibition curve with a large enough effect; inconclusive means small, poorly fitted or top-dose-only effect, or effect the other way; inactive means flat fitted curve, though single readings scatter. No potency is given beside an inconclusive call; the fits are too rough. Some structures have more than one record in an assay (separate samples or runs), and their calls can disagree.
Potency means the concentration at half of the fitted maximal effect; tags describe the fitted curve by direction and shape.

Assay: VP16 counterscreen qHTS for inhibitors of ROR gamma transcriptional activity;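 further: Gal4-VP16 expression switched on by copper sulfate through the metallothionein promoter; nearly all actives have a fitted effect of over 50% in size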
Conditions: Drosophila S2 Gal4-VP16 UAS-luciferase, luminescence, 20 h; series mostly up to 53.6 µM
In the case of `N#C/C(=C/c1ccc(N2CCCCCC2)o1)c1cccc(F)c1`, the Potency is reported as inconclusive [inhibitor, single point].
For `COc1ccc(C[C@H]2CN3C(=NC[C@@H]3Cc3ccccc3)N2CCNC(=O)c2ccc(C)c(Br)c2)cc1`, the Potency was inconclusive [inhibitor, single point].
For `Cc1cc2ccccc2c(=O)[nH]1`, the Potency was “inactive”.
In the case of `CCOC(=O)c1cc2c(ccn2C)n1CC(=O)N(Cc1ccccc1)c1ccc(F)cc1`, the Potency is reported as inconclusive [inhibitor, single point].
For `COc1ccc(NC(=O)c2c(Nc3ccccc3)sc(C(=O)c3ccc(F)cc3)c2N)cc1`, the Potency was active: 12.6 µM.
In the case of `CCSc1nnc(NC(=O)[C@@H](NC(=O)c2ccc(C(C)(C)C)cc2)C(C)C)s1`, the Potency is reported as “inactive”.
For `COc1cccc(-c2csc(N3CCN(C(=S)Nc4ccccc4)CC3)n2)c1`, the Potency was inconclusive [inhibitor, single point].
For `C=C1CCN(C(CC(C)C)C(=O)Nc2nc3ccc(Cl)cc3s2)S(=O)(=O)c2ccccc21` (configuration not stated), the Potency was “inactive”.
For `CCc1ccc2nc(N(CCN(C)C)C(=O)c3ccc4ncsc4c3)sc2c1`, the Potency was inconclusive [inhibitor, single point].
In the case of `CC(=O)N1CCN(Cc2nc(C(c3ccccc3)c3ccccc3)no2)CC1`, the Potency is reported as “inactive”.
For `CC(C)(C)c1ccc(C(=O)NNc2ncccc2-n2cccc2)cc1`, the Potency was inconclusive [inhibitor, single point].
In the case of `O=C(CSc1ccc(-c2ccccc2)nn1)N1CCN(c2ccccc2)CC1`, the Potency is reported as inconclusive [inhibitor, partial curve].
With `CC1CCCCC1NC(=O)NC(=O)CCl` (configuration not stated) the Potency was active: 6.31 µM.
For `CCCCCCn1c(=O)[nH]c2c(c1=O)CCC2`, the Potency was “inactive”.
In the case of `N#CCC(=O)N/N=C/c1cn(Cc2ccc(Cl)c(Cl)c2)c2ccccc12`, the Potency is reported as inconclusive [inhibitor, single point].
In the case of `CC(C)(C)c1ccc(-c2nnc(SC3CCOC3=O)n2Cc2ccccc2)cc1` (configuration not stated), the Potency is reported as inconclusive [inhibitor, single point].
For `Cc1ccc(C(=O)N/C(=C\c2ccco2)C(=O)NCCN2CCOCC2)cc1C`, the Potency was “inactive”.
With `Cc1cc(Oc2ccc(Cl)cc2)nc(-c2ccccn2)n1` the Potency was active: 5.62 µM.
With `Oc1cc2c(cc1O)C1c3ccc(O)c(O)c3OCC1(O)C2` (configuration not stated) the Potency was active: 12.6 µM.
In the case of `CCOC(=O)Cn1cc(/C=C/[N+](=O)[O-])c2ccccc21`, the Potency is reported as active: 12.6 µM.
With `CC(CNC(=O)COc1ccccc1)OC(=O)Nc1cccc(Cl)c1` (configuration not stated) the Potency was inconclusive [inhibitor, partial curve, poor fit].
For `COc1cccc(Cn2nnc(C(=O)NCCc3ccc(Cl)cc3)c2N)c1`, the Potency was “inactive”.
With `CNc1nnc(Sc2ncccc2[N+](=O)[O-])s1` the Potency was “inactive”.
In the case of `COc1ccc(C)cc1NC(=O)CCCN1C(=S)NC(C)(C)CC1C` (configuration not stated), the Potency is reported as active: 4.47 µM.
With `O=C(COC(=O)Cn1cnc2ccccc21)Nc1cc2c(cc1Cl)C(=O)c1ccccc1C2=O` the Potency was inconclusive [inhibitor, full curve].
In the case of `Cc1ccc(OCCCN2CCOCC2)c([N+](=O)[O-])c1`, the Potency is reported as “inactive”.
In the case of `CC1CCC/C(=N/Nc2nc3ccccc3s2)C1` (configuration not stated), the Potency is reported as inconclusive [inhibitor, single point].
For `CC(C)(C)S(=O)(=O)c1ccc(S(=O)(=O)C(C)(C)C)s1`, the Potency was inconclusive [inhibitor, partial curve].
In the case of `CN(CCCC(=O)N1CCCC(C(N)=O)C1)S(=O)(=O)c1ccc(F)cc1` (configuration not stated), the Potency is reported as “inactive”.
In the case of `CC1CC1c1ccc(/C=C(\C#N)C(=O)Nc2ccc(Cl)cc2Cl)o1` (configuration not stated), the Potency is reported as inconclusive [activator, full curve, poor fit].
For `COC(=O)C1=C(C)NC(=S)NC1c1ccc(-c2cc(Cl)ccc2Cl)o1` (configuration not stated), the Potency was active: 4.47 µM.
In the case of `C=CCOc1ccc2ccccc2c1CNn1cn[nH]c1=S`, the Potency is reported as inconclusive [inhibitor, single point].
With `COC(=O)c1cccc(NS(=O)(=O)c2ccc(OC)c(OC)c2)c1C` the Potency was inconclusive [inhibitor, single point].
In the case of `O=C(Cc1ccc(Cl)cc1)N/N=C/c1cccc(O)c1`, the Potency is reported as inconclusive [inhibitor, single point].
In the case of `CN(CCOc1ccccc1)Cc1nc2cc(Cl)ccc2c(=O)[nH]1`, the Potency is reported as inconclusive [inhibitor, single point].
In the case of `NC(=S)N/N=C/c1ccc(-c2ccc(SC(F)F)cc2)o1`, the Potency is reported as active: 1.12 µM.
For `O=C(N/N=C/c1ccc(Br)s1)c1c[nH]c2ccccc12`, the Potency was inconclusive [inhibitor, single point].
For `O=C(CNC(=O)c1ccc([N+](=O)[O-])cc1)N/N=C\c1ccc(OC(=O)c2ccccc2)cc1`, the Potency was inconclusive [inhibitor, partial curve, poor fit].
In the case of `CCOc1ccccc1NC(=S)NCc1ccccc1`, the Potency is reported as active: 8.91 µM.
With `Cn1c(=O)c(C#N)c(-c2ccc(F)cc2)c2cc(C(=O)c3cc(Cl)cc(Cl)c3O)cnc21` the Potency was active: 17.8 µM.
For `CCN1C(=O)c2ccc(C(=O)Nc3ccc4c(c3)OCO4)cc2C1=O`, the Potency was inconclusive [activator, single point].
For `COCCn1c(C)cc(/C=C2\NC(=S)N(C)C2=O)c1C`, the Potency was inconclusive [inhibitor, single point].
For `CCOc1c(C=C(C#N)C#N)c2ccccc2n1CC`, the Potency was inconclusive [activator, single point].
In the case of `Cc1ccc(N(CC(O)Cn2c3ccccc3c3ccccc32)S(C)(=O)=O)c(C)c1` (configuration not stated), the Potency is reported as inconclusive [inhibitor, single point].
For `CC(C)c1nnc(NC(=O)CSc2nnc(-c3ccco3)o2)s1`, the Potency was active: 17.8 µM.
In the case of `NC(=O)c1ccccc1N/C=C/C(=O)c1ccccc1`, the Potency is reported as inconclusive [inhibitor, single point].
With `COc1ccc(C2(C(=O)Nc3ccc(S(=O)(=O)Nc4nc(C)cc(C)n4)cc3)CCCC2)cc1OC` the Potency was inconclusive [inhibitor, partial curve].
